# The BET-seq Pho4 binding data (Le et al. 2018)
# Some of the results follow. Values were computed here from the reads of four pooled replicates and scatter widely.
# Biological target: T1, Pho4 (S. cerevisiae) (UniProt P07270)
# T1 sequence: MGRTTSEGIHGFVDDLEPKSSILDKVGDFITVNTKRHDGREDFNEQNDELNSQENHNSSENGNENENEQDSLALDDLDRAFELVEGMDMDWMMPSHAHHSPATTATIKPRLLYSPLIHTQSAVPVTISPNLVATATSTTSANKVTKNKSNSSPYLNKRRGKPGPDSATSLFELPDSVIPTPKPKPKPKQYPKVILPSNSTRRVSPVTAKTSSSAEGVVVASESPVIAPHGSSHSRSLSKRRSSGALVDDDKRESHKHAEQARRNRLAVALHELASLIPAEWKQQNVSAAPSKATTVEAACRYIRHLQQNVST
# Assay: relative binding free energy (BET-seq); higher = weaker binding
# Details: reference: library average
row,Sequence,relative binding free energy [kcal/mol]
1,AAGAACACGTGGGGTG,-0.15
2,GAGTGCACGTGAAATG,0.32
3,TCTGGCACGTGGCGTT,-0.22
4,AGGGCCACGTGGTCGG,-0.15
5,GGGGACACGTGGAGCA,0.02
6,TGGAGCACGTGAGTGC,0.2
7,GTGATCACGTGCTTGG,0.2
8,CGGTGCACGTGATGTA,0.02
9,TATGGCACGTGGGAAA,-0.04
10,AATTTCACGTGGAGGC,0.27
11,GTGACCACGTGGAGGT,0
12,TGGGGCACGTGGGGGC,-0.25
13,TTTGTCACGTGCCGTT,-0.14
14,TTGTGCACGTGTATGA,-0.02
15,GGATGCACGTGGAGAG,0.09
16,GGGTACACGTGGTAGT,0.06
17,CTTGACACGTGTTTGG,0.07
18,GGTCTCACGTGGAGGT,0.14
19,GGGGTCACGTGATAAT,0.29
20,GTCGCCACGTGGGGGG,-0.33
21,AATGCCACGTGTTTTG,0.06
22,TTTTTCACGTGCGTAC,0.22
23,TCTGGCACGTGTACGG,-0.06
24,AAGTGCACGTGATATG,0.1
25,GTTGGCACGTGTATGA,0.09

row,Sequence,relative binding free energy [kcal/mol]
1,TGTCACACGTGTGGTA,0
2,GTTGTCACGTGCGCTA,0.06
3,GGTCGCACGTGCTGGA,-0.05
4,AGGTGCACGTGGTGCG,-0.11
5,TTGAACACGTGGTCAT,-0.03
6,AATAGCACGTGTGATG,0.01
7,TTTTACACGTGATTGA,0.25
8,AATTTCACGTGTATAG,0.32
9,GTGTACACGTGGTGAT,-0.11
10,CTTTTCACGTGCGGTA,0.25
11,GGGTTCACGTGATTGG,0.55
12,GTAGTCACGTGGAGAA,0.15
13,AAGGTCACGTGTGCGT,0.13
14,TTATGCACGTGTAAGA,0.15
15,TGAGGCACGTGGTGTG,-0.08
16,TCTTACACGTGTGTTA,0.06
17,GAAGGCACGTGTTTAG,-0.13
18,CTTTGCACGTGGTGTA,-0.25
19,ATAGTCACGTGCGAGT,-0.04
20,TGATACACGTGGTAAG,0.01
21,TGCATCACGTGAAGGG,0.35
22,TCTGTCACGTGCTGGT,0.11
23,GGATTCACGTGAGTCG,0.49
24,ATGTACACGTGTGTTC,-0.1
25,GTGCACACGTGTTTAT,0.11

row,Sequence,relative binding free energy [kcal/mol]
1,CGGTACACGTGAGTAG,0.29
2,GCTTACACGTGTTTGG,0.15
3,CGATGCACGTGGTATA,-0.08
4,TGGTTCACGTGCAGTT,0.27
5,TTAATCACGTGTAATC,0.22
6,TGGGACACGTGTCAGG,0.08
7,AATCTCACGTGAGGGT,0.31
8,AGATGCACGTGTAAAT,0.12
9,TTTGCCACGTGAGTAG,0.09
10,GTGGGCACGTGTCATA,-0.06
11,ATGTTCACGTGGTAGC,0.16
12,CTTGGCACGTGGGTGT,-0.27
13,TGCGGCACGTGTTTGC,-0.04
14,AGCGGCACGTGAAGGG,0.07
15,CGACGCACGTGAGGGG,0.2
16,AGTGGCACGTGTAGGT,-0.14
17,GTTAGCACGTGTGGAA,0.05
18,AGTATCACGTGGGTAC,0.01
19,GATGACACGTGAGGAG,0.34
20,GCGTGCACGTGGATGA,-0.01
21,TGAGGCACGTGTTAGG,-0.09
22,TTTTACACGTGCGGTA,0.13
23,TAAGTCACGTGCAGGG,0.14
24,TTCTGCACGTGGTATG,-0.08
25,GGGGCCACGTGAGTTC,0.3

row,Sequence,relative binding free energy [kcal/mol]
1,GGGGGCACGTGTGTCC,-0.14
2,TATATCACGTGGGTCT,-0.06
3,ATTGGCACGTGTAGGG,-0.07
4,GTGTGCACGTGAGCGG,0.16
5,AGGATCACGTGGGAGT,0.12
6,GAGTGCACGTGTTAGT,-0.09
7,GGTTTCACGTGCTGAA,0.35
8,ATCTTCACGTGGATTG,0.29
9,TTACTCACGTGGTAGT,0.06
10,GGGGACACGTGAGTAA,0.2
11,TATTGCACGTGTTAGG,0.04
12,GTGTGCACGTGTGATA,0.14
13,GGGTGCACGTGCGCAG,-0.23
14,GTAAGCACGTGTTTGG,-0.05
15,TTTTTCACGTGACGCT,0.31
16,GTTGGCACGTGATAGC,0.03
17,GATAGCACGTGTCGGT,-0.02
18,GTGTTCACGTGTTGCG,0.25
19,AGTTACACGTGCTTGT,-0.03
20,CTCGGCACGTGGGGTT,-0.25
21,ACGTTCACGTGGATGG,0.06
22,GCGGTCACGTGAGGGC,0.37
23,TCTCGCACGTGCGGGG,-0.13
24,AACAGCACGTGGTGGG,-0.23
25,TAGGCCACGTGTGTAT,-0.08

row,Sequence,relative binding free energy [kcal/mol]
1,AGATGCACGTGTAGTG,0
2,TAATTCACGTGTGGGA,0.26
3,CGTTGCACGTGGGAGG,-0.11
4,GTTGTCACGTGTGATC,0.17
5,AAATACACGTGTTTTG,0.1
6,AGTAGCACGTGTTTCA,-0.1
7,GGCGTCACGTGAGGAG,0.3
8,ATTTTCACGTGACAGT,0.29
9,GTAGACACGTGAGATT,0.31
10,GCAATCACGTGGGGGT,0
11,TAGTGCACGTGTATAT,0.05
12,GTTCACACGTGATATG,0.27
13,AGGTTCACGTGAGGAG,0.52
14,CATGTCACGTGGGCTG,-0.19
15,TGGGACACGTGAGCGG,0.16
16,GAAAGCACGTGGTGGA,-0.24
17,AGGCGCACGTGTGGTC,-0.06
18,TTAGTCACGTGACAGG,0.16
19,GGGTTCACGTGGTGCG,0.24
20,GTGGACACGTGAAAGT,0.21
21,TGTGGCACGTGGGTAG,-0.18
22,TAAGCCACGTGTAGGT,-0.03
23,TGATTCACGTGGCAGG,0.01
24,CGTGTCACGTGGGAAG,0.02
25,AGGGCCACGTGTGGTC,-0.04

row,Sequence,relative binding free energy [kcal/mol]
1,CGCAGCACGTGTGGTG,-0.13
2,GAGATCACGTGTAGTG,0.14
3,CAGGGCACGTGTAAAT,0.17
4,TGAGACACGTGTCGGG,-0.02
5,GTTCGCACGTGTTGAT,-0.09
6,TTGGTCACGTGAGTTA,0.39
7,AGGGGCACGTGCTCAG,-0.19
8,CGGAGCACGTGGGGGT,-0.27
9,TATTTCACGTGTAGGA,0.31
10,AGGGTCACGTGTCCGT,-0.03
11,GGCCTCACGTGGGGTA,0.08
12,CGGGGCACGTGTGCAT,-0.15
13,GTGTTCACGTGTTTTC,0.35
14,GGGACCACGTGGTCGG,-0.1
15,GCCGACACGTGGGGGG,-0.18
16,AGAGGCACGTGGAGAT,-0.06
17,GGCATCACGTGTGAGT,0.24
18,GATCGCACGTGTTCGG,0.27
19,TGCTGCACGTGAGGGA,0.23
20,TGGTCCACGTGTATTA,0.02
21,TCTGGCACGTGGGTGA,-0.19
